In PubChem BioAssay AID902 (National Center for Advancing Translational Sciences (NCATS), 2007):
About 1,900 (1.5%) of roughly 130,000 compounds were called active. Inconclusive means that the source gave no clear call. Such entries were picked first, then a sample of the others. Calls follow the shape of the dose curve; as a rule, active = well fitted cell-killing curve with a large enough effect; inconclusive = small, poorly fitted or top-dose-only effect; inactive = no such curve, though single readings can be large or run the other way. Where the call is inconclusive, the potency comes from a doubtful curve fit.
% is scaled to controls: 0 for no effect and ±100 for the full control effect; potency is read from the fitted curve at half-maximal effect; tags tell the direction and shape of the fitted curve.

Assay: qHTS Screen for Compounds that Selectively Target Cancer Cells with p53 Mutations: Cytotoxicity of p53ts Cells at the Nonpermissive Temperature; also: nearly all actives have a fitted effect of over 55% in size
Details: H1299-p53A138V viability at 39C, ATP luminescence, 24 h; activity change, negative = cell killing: at 46.1 µM (top of the series)
For `O=S(=O)(Nc1ccc(Br)cc1)c1ccc2nc(-c3ccccc3)[nH]c2c1`, the Potency was inconclusive: 20 µM [cytotoxic, single point].
With `Cc1cccc(NC(=O)c2ccc(F)c(S(=O)(=O)NCc3ccc4c(c3)OCO4)c2)c1` the Potency was inconclusive: 12.6 µM [cytotoxic, partial curve].
With `Cn1nnc(NC(=O)c2ccc(C(C)(C)C)cc2)n1` the Potency was active: 7.94 µM.
In the case of `COc1cc(O)ccc1-c1nc2ccc(Br)cn2c1Nc1ccccc1C`, the Potency is reported as inconclusive: 20 µM [cytotoxic, single point].
For `CCOC(=O)c1cnc2cc3c(cn2c1=O)CCCC3`, the Potency was inconclusive: 15.8 µM [cytotoxic, partial curve].
With `C1CCC(C(CC2CCCCN2)C2CCCCC2)CC1` (stereo not drawn) the Potency was inconclusive: 31.6 µM [cytotoxic, single point].
In the case of `COc1cccc(NC(=O)CSc2nnc3[nH]c(=O)cc(-c4ccccc4)n23)c1`, the Potency is reported as inconclusive: 0.562 µM [cytotoxic, full curve].
In the case of `CC(=O)Nc1ccc(NC(=O)c2ccc3c(c2)CCN3S(=O)(=O)c2ccc(Cl)cc2)cc1`, the Potency is reported as inconclusive: 12.6 µM [cytotoxic, single point].
For `CCc1ccc(NS(=O)(=O)c2cc(Br)cc3c2N(C(C)=O)CC3)cc1`, the Potency was inconclusive: 0.794 µM [cytotoxic, full curve, poor fit].
For `COc1ccc(CCNc2oc(/C=C/c3ccc(OC)c(OC)c3)nc2C#N)cc1`, the Potency was inconclusive: 3.16 µM [cytotoxic, partial curve].
In the case of `CC(=O)Nc1ccccc1OCC(=O)c1cc(C)n(Cc2cccs2)c1C`, the “activity change, negative = cell killing” value is reported as inactive: -18%.
In the case of `Cc1cc(Br)ccc1NC(=O)COc1cc(=O)n(C)c2ccccc12`, the Potency is reported as inconclusive: 7.94 µM [cytotoxic, partial curve].
With `CCNc1ncc2nc(-c3ccc(OC)cc3)c(=O)n(Cc3cccs3)c2n1` the Potency was inconclusive: 25.1 µM [cytotoxic, single point].
With `CCOCC(=O)Nc1ccc(-c2cn3c(C)csc3n2)cc1` the Potency was inconclusive: 15.8 µM [cytotoxic, partial curve].
In the case of `Cc1nnc(N2CCC(C(=O)NCc3ccc(F)cc3)CC2)c2nn(-c3ccc(Cl)cc3)c(C)c12`, the Potency is reported as inconclusive: 31.6 µM [cytotoxic, single point].
For `CCc1nc(N)nc(N)c1-c1ccc(Cl)cc1`, the Potency was inconclusive: 7.94 µM [cytotoxic, partial curve].
For `CCOc1ccc(C2C(C(N)=O)=C(C)Nc3nc(-c4ccc(OC)cc4)nn32)cc1` (stereo not drawn), the Potency was inconclusive: 15.8 µM [cytotoxic, single point].
For `COc1ccccc1Nc1nn2c(=O)c3ccc(C(=O)NC4CCC(C)CC4)cc3nc2s1` (stereo not drawn), the Potency was inconclusive: 20 µM [cytotoxic, single point].
For `CCOC(=O)c1ccc(NC(=O)c2nn(C)cc2Br)cc1`, the Potency was inconclusive: 10 µM [cytotoxic, partial curve].
With `CCN(C(=O)CSc1nc(-c2ccccc2)no1)c1cccc(C)c1` the Potency was inconclusive: 31.6 µM [cytotoxic, single point].
In the case of `Cc1ccc(NC(=O)CCn2nc(-c3ccccc3)c3ccccc3c2=O)c(C)c1`, the “activity change, negative = cell killing” value is reported as inactive: -1.31%.
With `Fc1ccc(Nc2nc(-c3cccc(Cl)c3)c3c(n2)-c2ccccc2OC3)cc1` the Potency was inconclusive: 31.6 µM [cytotoxic, single point].
With `O=C1/C(=C\c2cccnc2)CN(Cc2ccccc2)C/C1=C\c1cccnc1` the Potency was inconclusive: 25.1 µM [cytotoxic, single point].
For `CCc1ccc(C2=C(C)C(N3CCC(C(=O)Nc4ccc(F)cc4)CC3)=NS2(=O)=O)cc1`, the Potency was active: 10 µM.
In the case of `COc1ccc(-n2ncc3c(N4CCCCC4)ncnc32)cc1`, the Potency is reported as active: 3.16 µM.
In the case of `O=C(Nc1ccc(CN2CCOCC2)cc1)c1ccc(-c2ccc(Br)cc2)o1`, the “activity change, negative = cell killing” value is reported as inactive: -13.4%.
For `CCOc1ccc(CNC(=O)C2CCN(S(=O)(=O)c3cn(C)cn3)CC2)cc1OC`, the Potency was inconclusive: 35.5 µM [cytotoxic, single point].
With `CCC(C)Sc1c(C(C)C)cnc2c1c(=O)n(C)c(=O)n2C` (stereo not drawn) the “activity change, negative = cell killing” value was inactive: -10.3%.
In the case of `CCN(C(=O)c1cn(-c2ccc(OC)cc2)c(=O)c2ccccc12)c1cccc(Cl)c1`, the Potency is reported as inconclusive: 3.98 µM [cytotoxic, partial curve].
In the case of `O=C(CSC1=Nc2ccccc2N=C(c2ccc(F)cc2)C1)NCc1ccccc1Cl`, the “activity change, negative = cell killing” value is reported as inactive: -19.7%.
With `Cc1cc(NCCN2CCOCC2)n2ncc(-c3ccccc3)c2n1` the “activity change, negative = cell killing” value was inactive: -7.04%.
With `CC(C)(CN)CN` the activity change, negative = cell killing was inactive: -4.82% [at 9.22 µM].
With `COc1ccc(CNC(=O)c2cc3cccc4c3n2CC(C)S4)c(OC)c1` (stereo not drawn) the “activity change, negative = cell killing” value was inactive: 1.47%.
For `COC(=O)c1cc2oc(C)cc2n1CC(=O)Nc1cc(Cl)ccc1OC`, the Potency was inconclusive: 0.0079 µM [cytotoxic, full curve].
With `COc1ccc(-c2nnc(-c3ccc(N)cc3)o2)cc1` the Potency was inconclusive: 10 µM [cytotoxic, partial curve].
With `COc1ccc(-c2noc(-c3cccc(OC)c3OC)n2)cc1` the Potency was inconclusive: 7.94 µM [cytotoxic, partial curve].
For `COc1ccccc1NC(CC(=O)c1ccccc1)C(=O)OCC(=O)c1ccc(C)cc1` (stereo not drawn), the Potency was inconclusive: 11.2 µM [cytotoxic, partial curve, poor fit].
With `Cc1cc(N2CCN(C(=O)c3ccco3)CC2)n2nc(-c3cccc(Cl)c3)cc2n1` the Potency was inconclusive: 25.1 µM [cytotoxic, single point].
In the case of `N#Cc1cccc(-c2cc(NCc3cccnc3)ncn2)c1`, the “activity change, negative = cell killing” value is reported as inactive: -4.57%.
In the case of `COc1ccc(S(=O)(=O)NCc2ccc(C(=O)NCc3ccccc3)cc2)cc1`, the “activity change, negative = cell killing” value is reported as inactive: 29%.
For `c1ccc(N(c2ccccc2)c2nc(N3CCCC3)nc(-n3ccnc3)n2)cc1`, the Potency was inconclusive: 20 µM [cytotoxic, single point].
In the case of `CC(C)c1ccc(NC(=O)C2(C)Cc3ccccc3C(=O)O2)cc1` (stereo not drawn), the Potency is reported as inconclusive: 7.94 µM [cytotoxic, partial curve].
For `Cc1ccc(S(=O)(=O)n2nc(-c3ccco3)nc2SCc2ccccc2)cc1`, the Potency was inconclusive: 12.6 µM [cytotoxic, single point].
With `CCC1CCCCN1CCCNC(=O)CN1C(=O)CSc2ccc(S(=O)(=O)N3CCC(C)CC3)cc21` (stereo not drawn) the Potency was inconclusive: 10 µM [cytotoxic, partial curve, poor fit].
For `O=c1c(-c2cc(F)cc(F)c2)nc2cnc(N3CCNCC3)nc2n1Cc1cccs1`, the Potency was inconclusive: 25.1 µM [cytotoxic, single point].
With `Nc1nonc1-c1nc2ccccc2n1Cc1ccc(F)cc1` the Potency was inconclusive: 3.98 µM [cytotoxic, full curve, poor fit].
In the case of `Cc1ccc(CCNC(=O)Cn2c(-c3cccs3)cc3cc(F)ccc32)cc1`, the Potency is reported as inconclusive: 0.005 µM [cytotoxic, full curve, poor fit].
For `Oc1ccc(-c2nnc(-c3ccc(O)cc3)nn2)cc1`, the Potency was inconclusive: 6.31 µM [cytotoxic, partial curve].
With `O=C(Cn1ncc2c3ccccc3n(Cc3ccccc3F)c2c1=O)NCCc1ccc(Cl)cc1` the “activity change, negative = cell killing” value was inactive: -13.9%.
In the case of `COc1ccc(-c2ccc(NS(=O)(=O)c3cccc(Cl)c3)cc2)nn1`, the “activity change, negative = cell killing” value is reported as inactive: 0.428%.
With `CC(C)CC(=O)NCc1nc2cccnc2n1Cc1ccccc1` the Potency was inconclusive: 6.31 µM [cytotoxic, partial curve].
With `COc1cccc(Cn2c(=O)n(-c3ccc(C)c(F)c3)c(=O)c3sc4ccccc4c32)c1` the Potency was inconclusive: 12.6 µM [cytotoxic, single point].
With `Clc1ccc(OCc2nc(-c3ccncc3)no2)c(Cl)c1` the Potency was inconclusive: 20 µM [cytotoxic, single point].
For `COc1ccccc1CN1COc2ccc3c(C)cc(=O)oc3c2C1`, the “activity change, negative = cell killing” value was inactive: 7.2%.
For `Cc1c(O)c(=O)ccn1Cc1ccccc1`, the Potency was inconclusive: 5.01 µM [cytotoxic, single point].
For `C=C1C(=O)C23C(O)C1CCC2[C@]12COC3(O)C(O)C1C(C)(C)CC[C@H]2O` (stereo partly drawn), the Potency was inconclusive: 3.16 µM [cytotoxic, single point].
For `CCCCOc1nc2ccccc2nc1C(C#N)S(=O)(=O)c1ccccc1` (stereo not drawn), the Potency was inconclusive: 31.6 µM [cytotoxic, single point].
With `Cc1ccc(C(CC(=O)NCC2(c3ccccc3)CCCC2)c2ccccc2)c(O)c1` (stereo not drawn) the Potency was active: 15.8 µM.
For `COc1ccc(C)cc1NC(=O)c1cc2c(s1)-c1ccccc1SC2`, the Potency was inconclusive: 0.005 µM [cytotoxic, full curve].
In the case of `O=c1c(-c2ccc3c(c2)OCCO3)coc2cc(O)cc(O)c12`, the Potency is reported as active: 7.94 µM.
In the case of `Cc1nn(-c2ccccc2)c(-n2cccc2)c1C(=O)NCc1ccccc1Cl`, the Potency is reported as inconclusive: 10 µM [cytotoxic, partial curve].
For `CN1C(=O)CSc2ccc(NC(=O)N3CCc4ccccc43)cc21`, the Potency was inconclusive: 12.6 µM [cytotoxic, partial curve].
For `Cc1noc(NS(=O)(=O)c2ccc(NC(=O)COc3ccc(Cl)cc3Cl)cc2)c1C`, the “activity change, negative = cell killing” value was inactive: -8.87%.
With `Cc1ccc(NC(=O)Cn2c(=O)n(-c3ccc(C)cc3)c(=O)c3ccc(C(=O)NCc4ccccc4Cl)cc32)cc1` the Potency was active: 1.26 µM.
For `Cc1cccc(CNC(=O)Cc2csc3ccccc23)c1`, the Potency was inconclusive: 35.5 µM [cytotoxic, single point].
For `CC1CCCCN1S(=O)(=O)c1ccc(F)c(C(=O)Nc2ccccc2C(F)(F)F)c1` (stereo not drawn), the activity change, negative = cell killing was inconclusive: -31.6% [cytotoxic].
In the case of `CCCc1ccc(-c2ccc(C(=O)O)cc2)nc1`, the “activity change, negative = cell killing” value is reported as inactive: -27.6%.
In the case of `Cc1ccc(Nc2cc(=O)[nH]c(=O)[nH]2)cc1C`, the Potency is reported as inconclusive: 12.6 µM [cytotoxic, partial curve, poor fit].
